Only a part is listed here, and it is no random draw. The list includes weakly bound sequences.

In the assay the target is T1, GST-Aq-NF-kB (UniProt A9Y5G7).
T1 sequence: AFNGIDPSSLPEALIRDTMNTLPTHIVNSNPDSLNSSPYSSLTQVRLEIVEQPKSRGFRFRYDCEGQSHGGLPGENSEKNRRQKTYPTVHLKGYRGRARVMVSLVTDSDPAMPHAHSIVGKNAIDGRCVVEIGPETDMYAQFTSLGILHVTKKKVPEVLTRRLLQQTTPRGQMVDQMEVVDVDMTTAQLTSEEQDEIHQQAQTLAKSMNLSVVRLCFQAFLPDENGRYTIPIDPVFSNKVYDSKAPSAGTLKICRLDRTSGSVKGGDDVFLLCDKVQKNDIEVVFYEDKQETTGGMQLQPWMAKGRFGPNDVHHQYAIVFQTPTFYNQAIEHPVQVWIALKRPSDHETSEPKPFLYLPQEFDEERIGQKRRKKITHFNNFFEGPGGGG
The assay is described as follows: protein-binding microarray (PBM). The settings on record: PBM: ~300 nM protein, 6 mM HEPES pH 7.8, 80 mM KCl, 0.5 mM EDTA, 0.5 mM EGTA, 6% glycerol, 35 ng/ul poly-dIdC, 1% milk, 1 h, room temperature; Ap Aiptasia and Nv Nematostella (sea anemones) / Co Capsaspora / Aq Amphimedon (sponge) / Dm Drosophila / Hu human; RHD is the Rel homology domain; high values mean tight binding; most listed sequences are background and not binding sites; double strand, one strand shown.
In turn, “CCGATTAACATCAGCGATTCCTTTGATGTTAATCGGGTCTTGATTCGCTTGACGCTGCTG” came in with a binding signal of -0.524 z-score.

“CCGATTAACATCACGGAATCTCCTGATGTTAATCGGGTCTTGATTCGCTTGACGCTGCTG” returned a binding signal of 2.17 z-score.

As for “CCGATTAACATCAACCCTCGAACTGATGTTAATCGGGTCTTGATTCGCTTGACGCTGCTG”, the binding signal is -0.179 z-score.

On to “CCGATTAACATCATCGACAGCAGTGATGTTAATCGGGTCTTGATTCGCTTGACGCTGCTG”, for which the binding signal was -0.509 z-score.

For “CCGATTAACATCAAAGTGGTCTTTGATGTTAATCGGGTCTTGATTCGCTTGACGCTGCTG”, the binding signal is -0.86 z-score.

As to “CCGATTAACATCATTTCTCCTATTGATGTTAATCGGGTCTTGATTCGCTTGACGCTGCTG”, the binding signal was -0.206 z-score.

As to “CCGATTAACATCAGGATTGCCCATGATGTTAATCGGGTCTTGATTCGCTTGACGCTGCTG”, the binding signal was 0.887 z-score.

For “CCGATTAACATCAGTGCAGTCTATGATGTTAATCGGGTCTTGATTCGCTTGACGCTGCTG”, the binding signal is -0.237 z-score.

Sequence “CCGATTAACATCAGTTCCTAATATGATGTTAATCGGGTCTTGATTCGCTTGACGCTGCTG” had a binding signal of -0.404 z-score.

The sequence “CCGATTAACATCAAAGATTTGAATGATGTTAATCGGGTCTTGATTCGCTTGACGCTGCTG” had a binding signal of -0.431 z-score.

As to “CCGATTAACATCACTCTGGCTCTTGATGTTAATCGGGTCTTGATTCGCTTGACGCTGCTG”, the binding signal was -0.441 z-score.

With “CCGATTAACATCAGTGCTGACCGTGATGTTAATCGGGTCTTGATTCGCTTGACGCTGCTG”, the binding signal was -0.0959 z-score.

In the case of “CCGATTAACATCAGCTCTAACTGTGATGTTAATCGGGTCTTGATTCGCTTGACGCTGCTG”, the binding signal is -0.544 z-score.

With “CCGATTAACATCAAAGGGAATTCTGATGTTAATCGGGTCTTGATTCGCTTGACGCTGCTG”, the binding signal worked out at 5.65 z-score.

In the case of “CCGATTAACATCACACTACATCGTGATGTTAATCGGGTCTTGATTCGCTTGACGCTGCTG”, the binding signal is -0.763 z-score.

On to “CCGATTAACATCAGCGCAAGATATGATGTTAATCGGGTCTTGATTCGCTTGACGCTGCTG”, for which the binding signal was -0.185 z-score.

As for “CCGATTAACATCACAACTCACATTGATGTTAATCGGGTCTTGATTCGCTTGACGCTGCTG”, the binding signal is -0.331 z-score.

Regarding “CCGATTAACATCAGGGAATTCCCTGATGTTAATCGGGTCTTGATTCGCTTGACGCTGCTG”, the binding signal was found to be 12.2 z-score.

Sequence “CCGATTAACATCAACTAAATTCCTGATGTTAATCGGGTCTTGATTCGCTTGACGCTGCTG” displayed a binding signal of -0.0369 z-score.

In turn, “CCGATTAACATCAGTGATTAAGGTGATGTTAATCGGGTCTTGATTCGCTTGACGCTGCTG” registered a binding signal of 0.274 z-score.

“CCGATTAACATCAGGAAATCTCCTGATGTTAATCGGGTCTTGATTCGCTTGACGCTGCTG” displayed a binding signal of 1.25 z-score.

“CCGATTAACATCAGTGGAAAGTATGATGTTAATCGGGTCTTGATTCGCTTGACGCTGCTG”: the binding signal is -0.178 z-score.

In turn, “CCGATTAACATCATTGTTATGCTTGATGTTAATCGGGTCTTGATTCGCTTGACGCTGCTG” yielded a binding signal of -0.389 z-score.

In turn, “CCGATTAACATCACCAATTTTCCTGATGTTAATCGGGTCTTGATTCGCTTGACGCTGCTG” yielded a binding signal of 0.336 z-score.

Sequence “CCGATTAACATCAGGCCGCCCGCTGATGTTAATCGGGTCTTGATTCGCTTGACGCTGCTG” registered a binding signal of -0.266 z-score.

Values taken from article PMC5700166.
